# Measured values taken from PubChem BioAssay AID463173 (ICCB-Longwood Screening Facility, Harvard Medical School, 2010).
# Screen size: about 52,000 compounds; about 1,700 (3.3%) were called active. Rule as the data show it: active = survival mostly below about 52% (no sharp cut-off); inactive = mostly above about 56%. Some of the results follow.
# Tested on: Wild type
# Experiment: S. aureus survival, RN4220 and DeltatarO strains – OD600, teichoic acid synthesis inhibitors, primary screen (AID 463173)
# Settings: S. aureus RN4220 wild type/DeltatarO growth, OD600, 18 h, hits give low values, screened at 18.75 µg/mL (by protocol)
row,Compound,survival
1,COc1ccc(CNC(=O)CN2C(=O)c3cccnc3Oc3ccc(C)cc32)cc1,inactive: 120%
2,CCc1cccc(C)c1NC(=O)CSc1nnc(CC)n2c1cc1occc12,inactive: 75%
3,CCSc1ncc(Cl)c(C(=O)Nc2ccc(S(=O)(=O)N(C)c3ccccc3)cc2)n1,inactive: 84%
4,CCCSCCCNC(=O)c1ccc2nc(Cc3ccccc3)oc2c1,inactive: 73%
5,Cc1cc(Nc2cccc(Cl)c2)nc2ccc(NC(=O)c3cccnc3)cc12,inactive: 81%
6,Cc1ccc(NC(=O)CSc2nc3n[nH]c(C)c3c(=N)n2-c2cccc(C)c2)cc1,active: -6%
7,O=C(CN1C(=O)COc2ccc(S(=O)(=O)N3CCCCCC3)cc21)NCc1ccc(F)cc1,inactive: 76%
8,CCc1ccc(CNC(=O)CN2CCSc3ccccc32)cc1,inactive: 68%
9,Cc1ccc(NC(=O)C(=O)NCC2(c3ccccc3)CCCC2)cc1Cl,inactive: 92%
10,O=C(NCCc1ccccc1)c1cnn(-c2ccc(F)cc2)c1-n1cccc1,inactive: 49%
11,CCOC(=O)N1CCc2c(sc3c2c(=O)n(CCc2ccccc2)c(=O)n3Cc2c(F)cccc2Cl)C1,inactive: 81%
12,CCC(=O)N1CCc2cc(S(=O)(=O)NC(C(=O)Nc3ccc(C(C)=O)cc3)C(C)C)ccc21 (centres undefined),inactive: 74%
13,Cc1cc(C)c2c(CC(=O)N(Cc3ccccc3)C3CCS(=O)(=O)C3)coc2c1 (centres undefined),inactive: 92%
14,Cc1cc(C)cc(OCC(=O)Nc2ccc(-c3nc4ccccc4o3)cc2)c1,inactive: 70%
15,CCC(=O)N1CCc2cc(Br)cc(S(=O)(=O)N3CCCC(C(=O)N(C)c4ccc(Br)cc4)C3)c21 (centres undefined),inactive: 128%
16,Cn1c(=O)oc2cc(S(=O)(=O)Nc3ccc(C(=O)O)cc3)ccc21,inactive: 84%
17,O=C(O)CCCN1CCCC1=O,inactive: 108%
18,COc1ccc(NC(=O)c2cccn2-c2nnc(N3CCCCC3)s2)cc1,inactive: 73%
19,COc1ccccc1CNC(=O)c1ccc(-c2nc(CN3CCc4ccccc43)c(C)o2)cc1,inactive: 83%
20,Cc1ccc(OCC(=O)Nc2ccc3nc(SCC(=O)N4CCc5ccccc54)sc3c2)cc1,inactive: 83%
21,CCn1c(=O)c2sccc2n2c(CCC(=O)Nc3cc(C)cc(C)c3)nnc12,inactive: 69%
22,CCOC(=O)C1CCCN(c2nc3c(S(=O)(=O)c4ccc(C)c(C)c4)nnn3c3ccc(Cl)cc23)C1 (centres undefined),inactive: 91%

row,Compound,survival
1,NS(=O)(=O)c1ccc(N=NSCCO)cc1,inactive: 96%
2,Cc1ccc(Cl)cc1N1CCN(c2ncnc3onc(C)c23)CC1,inactive: 64%
3,COc1ccc2c(c1)CC(C(=O)NCCCN1CCN(c3ccc(F)cc3)CC1)CO2 (centres undefined),inactive: 71%
4,COc1cccc(N2CCN(C(=O)C3CCN(S(=O)(=O)c4ccc5c(c4)oc(=O)n5C)CC3)CC2)c1,inactive: 95%
5,Clc1ccc(N2CCN(c3ncnc4c3nc3n4CCCC3)CC2)cc1,inactive: 73%
6,COc1ccc(-c2nc(CS(=O)CC(=O)NCc3ccccc3OC)c(C)o2)cc1 (centres undefined),inactive: 123%
7,COc1cccc(C(=O)Nc2cc3c(cc2C(=O)c2ccc(C)cc2)OCCO3)c1,inactive: 71%
8,COC(=O)C1=C(C)OC(N)=C(C#N)C1c1c(C)nn(-c2ccccc2)c1Cl (centres undefined),inactive: 104%
9,COc1ccc(C(=O)NCc2nnc(SCC(=O)Nc3ccccc3)n2-c2ccc(F)cc2)cc1,inactive: 78%
10,COCC(=O)N(C)c1nnc(-c2ccc(OC)cc2)s1,inactive: 99%
11,CCOc1ccc(CCNC(=O)CN2C(=O)C(CC)Oc3ccccc32)cc1OCC (centres undefined),inactive: 67%
12,CCn1cc(C(=O)Nc2ccccc2)c(=O)c2ccc(C)nc21,inactive: 111%
13,Cn1c(=O)oc2cc(S(=O)(=O)CCC(=O)N3CCN(c4ccccc4)CC3)ccc21,inactive: 70%
14,COc1ccccc1-c1cc(C(=O)Nc2sc3c(c2C#N)CCCC3)no1,inactive: 140%
15,COc1ccc(NC(=O)c2c(NCc3ccc(C)o3)sc3c2CCC(C)C3)c(OC)c1 (centres undefined),inactive: 84%
16,COc1ccc(OC)c(NC(=O)CSc2ccnc(=O)[nH]2)c1,inactive: 80%
17,COc1ccccc1N1CCN(S(=O)(=O)c2c(C)sc3ncn(CC(=O)Nc4cccc(Cl)c4)c(=O)c23)CC1,inactive: 83%
18,COc1ccc(C2CC(c3c(O)n(C4CCCCC4)c(=O)[nH]c3=O)=Nc3ccccc3S2)cc1 (centres undefined),inactive: 83%
19,Cc1ccc2c(c1)NC(=O)C(CC(=O)Nc1cc(Cl)ccc1C)O2 (centres undefined),inactive: 77%
20,COC(=O)c1c(-c2ccc(Cl)cc2)noc1N1CCN(c2ccc(OC)cc2)CC1,inactive: 69%
21,CCc1nn2c(=O)cc(COC(=O)CNC(=O)c3ccccc3)nc2s1,inactive: 124%
22,COc1cc(OC)c(Nc2cc(C)nc3ncnn23)cc1Cl,inactive: 87%
